# Data: a collection of fitness landscapes (doi:10.1016/j.celrep.2020.107928)
# In all, about 81,000 sequences were measured (“one-hybrid fitness for binding parS DNA”: median about -0.17, highest 2% from about 0.51 on). This is one part of the list.
# B1: Caulobacter ParB omega fusion; a variant is named by its letters at X, in order, B8GW30 (parent)
# chain: MESVVVGEPGMSEGRRGLGRGLSALLGEVDAAPAQAPGEQLGGSREAPIEILQRNPDQPRRTFREEDLEDLSNSIREKGVLQPILVRPSPDTAGEYQIVAGERAWRAAQRAGLKTVPIMVRELDDLAVLEIGIIENVQRADLNVLEEALSYKVLMEKFERTQENIAQTIGKSXSHVANXMRLLXLPDEVQSYLVSGELTAXHARAIAAAADPVALAKQIIEGGLSVRETEALARKAPNLSAGKSKGGRPPRVKDTDTQALESDLSSVLGLDVSIDHRGSTGTLTITYATLEQLDDLCNRLTRGI
# Variants of: B1
# Experiment: one-hybrid fitness for binding parS DNA (scaled: cognate 1, non-cognate 0); higher = stronger binding
# Conditions: with parS DNA site
# Outline: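 Caulobacter ParB libraries with four specificity codons randomised were screened by bacterial one-hybrid selection in the E. coli USO strain, using a HIS3 reporter whose site lies 19 bp from the promoter. Selection ran for 48 hours at 37°C on M9 lacking histidine, with 0.1 mM IPTG and 5 mM 3-AT. Plasmids were Illumina-sequenced before and after selection, three replicate libraries were pooled, and variants with under 10 reads were dropped. Fitness is the log change in each variant's read ratio to wild type, rescaled against the cognate and non-cognate sites.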
row,Variant,one-hybrid fitness for binding parS DNA
1,IVHT,≤ 0.2
2,RQNA,0.613
3,SICC,≤ 0.2
4,MTFN,≤ 0.2
5,VREV,≤ 0.2
6,FNLA,≤ 0.2
7,SWYS,≤ 0.2
8,LLMS,≤ 0.2
9,FAYG,≤ 0.2
10,RLQQ,≤ 0.2
11,IYNG,≤ 0.2
12,VRAT,≤ 0.2
13,WLSG,≤ 0.2
14,KMEF,≤ 0.2
15,ANVC,≤ 0.2
16,YVCR,≤ 0.2
17,RMLK,≤ 0.2
18,TTMK,≤ 0.2
19,LSAL,≤ 0.2
20,YCQN,≤ 0.2
21,IFME,≤ 0.2
22,IPGK,≤ 0.2
23,QAAL,≤ 0.2
24,HAQG,≤ 0.2
25,MNIL,≤ 0.2

row,Variant,one-hybrid fitness for binding parS DNA
1,PTKH,≤ 0.2
2,MFSG,≤ 0.2
3,KFVN,≤ 0.2
4,AKHP,≤ 0.2
5,LFAM,≤ 0.2
6,NRLW,≤ 0.2
7,QTTC,≤ 0.2
8,YFSK,≤ 0.2
9,PIYD,≤ 0.2
10,YDSR,≤ 0.2
11,TKHQ,≤ 0.2
12,IPCL,≤ 0.2
13,LHKM,≤ 0.2
14,WLTR,≤ 0.2
15,CLCY,≤ 0.2
16,QYKF,≤ 0.2
17,EKGG,≤ 0.2
18,VHYM,≤ 0.2
19,KRAL,≤ 0.2
20,IIDT,≤ 0.2
21,LQPW,≤ 0.2
22,AVVA,≤ 0.2
23,KCAD,≤ 0.2
24,QMYF,≤ 0.2
25,PLVN,≤ 0.2

row,Variant,one-hybrid fitness for binding parS DNA
1,NVFD,≤ 0.2
2,LELK,≤ 0.2
3,PTGF,≤ 0.2
4,QAEL,≤ 0.2
5,AQRN,≤ 0.2
6,MMYS,≤ 0.2
7,YAHE,≤ 0.2
8,GQSI,≤ 0.2
9,NCLR,≤ 0.2
10,HTIR,≤ 0.2
11,VGGV,≤ 0.2
12,GTPL,≤ 0.2
13,GFPY,≤ 0.2
14,SILG,≤ 0.2
15,KLDR,≤ 0.2
16,VNTY,≤ 0.2
17,TRCP,≤ 0.2
18,TYSM,≤ 0.2
19,REFS,≤ 0.2
20,KWVI,≤ 0.2
21,MVSM,≤ 0.2
22,AKTV,≤ 0.2
23,EAKY,≤ 0.2
24,TVRE,≤ 0.2
25,RHYE,≤ 0.2

row,Variant,one-hybrid fitness for binding parS DNA
1,CSNT,≤ 0.2
2,HCFS,≤ 0.2
3,AEIN,≤ 0.2
4,IGNT,≤ 0.2
5,AMRI,≤ 0.2
6,NEAG,≤ 0.2
7,AVYA,≤ 0.2
8,RLVY,0.465
9,EQLA,≤ 0.2
10,FQIR,≤ 0.2
11,ERLA,≤ 0.2
12,HDKS,≤ 0.2
13,FMWG,≤ 0.2
14,HYQF,≤ 0.2
15,LTSM,≤ 0.2
16,HFKG,≤ 0.2
17,CHTV,≤ 0.2
18,TSSL,≤ 0.2
19,PFKT,≤ 0.2
20,SARF,≤ 0.2
21,ITQW,≤ 0.2
22,SLNA,≤ 0.2
23,PQIG,≤ 0.2
24,HLQC,≤ 0.2
25,FTAG,≤ 0.2

row,Variant,one-hybrid fitness for binding parS DNA
1,SYSH,≤ 0.2
2,MMWG,≤ 0.2
3,YMMN,≤ 0.2
4,FRCG,≤ 0.2
5,CKMR,≤ 0.2
6,ESMS,≤ 0.2
7,TEDS,≤ 0.2
8,QTNA,≤ 0.2
9,VESH,≤ 0.2
10,DTHS,≤ 0.2
11,HSCR,≤ 0.2
12,YTFG,≤ 0.2
13,KLRT,≤ 0.2
14,QDTP,≤ 0.2
15,DRYA,≤ 0.2
16,QYNT,≤ 0.2
17,WRWP,≤ 0.2
18,RHPN,≤ 0.2
19,NYHG,≤ 0.2
20,LLYC,≤ 0.2
21,FEKR,≤ 0.2
22,DTAL,≤ 0.2
23,GTAW,≤ 0.2
24,QANW,≤ 0.2
25,QWKS,≤ 0.2

row,Variant,one-hybrid fitness for binding parS DNA
1,MAPV,≤ 0.2
2,RRCL,≤ 0.2
3,ITFW,≤ 0.2
4,EYAS,≤ 0.2
5,NHFS,≤ 0.2
6,IGEL,≤ 0.2
7,LERY,≤ 0.2
8,HLTS,≤ 0.2
9,TPQC,≤ 0.2
10,IHPL,≤ 0.2
11,TPHF,≤ 0.2
12,KQTL,≤ 0.2
13,ATRE,≤ 0.2
14,QVHC,≤ 0.2
15,GETT,≤ 0.2
16,TPNS,≤ 0.2
17,RNGV,≤ 0.2
18,GKWS,≤ 0.2
19,DNNC,≤ 0.2
20,YSIF,≤ 0.2
21,LYSI,≤ 0.2
22,QNLI,≤ 0.2
23,RSAV,≤ 0.2
24,IPAP,≤ 0.2
25,RLNF,0.209

row,Variant,one-hybrid fitness for binding parS DNA
1,RERE,≤ 0.2
2,ARGL,≤ 0.2
3,PLSR,≤ 0.2
4,HGAR,≤ 0.2
5,AHKH,≤ 0.2
6,WGIH,≤ 0.2
7,PTCV,≤ 0.2
8,HMSK,≤ 0.2
9,PDSF,≤ 0.2
10,DHRC,≤ 0.2
11,YFRD,≤ 0.2
12,NRKI,≤ 0.2
13,EELR,≤ 0.2
14,MQYT,≤ 0.2
15,ATIS,≤ 0.2
16,RLTM,0.346
17,NNKY,0.238
18,RHFG,0.876
19,GRTF,≤ 0.2
20,RVNS,0.915
21,QCLA,≤ 0.2
22,ISSG,≤ 0.2
23,ARMC,≤ 0.2
24,WGYF,≤ 0.2
25,GAQF,≤ 0.2

row,Variant,one-hybrid fitness for binding parS DNA
1,EMYG,≤ 0.2
2,SMNG,≤ 0.2
3,RQCR,≤ 0.2
4,WMKR,≤ 0.2
5,RCFR,≤ 0.2
6,DEIG,≤ 0.2
7,VKDC,≤ 0.2
8,REFT,≤ 0.2
9,TMMI,≤ 0.2
10,MRHV,≤ 0.2
11,GSTC,≤ 0.2
12,AVVN,≤ 0.2
13,LHQS,≤ 0.2
14,QAGK,≤ 0.2
15,HPQS,≤ 0.2
16,KMRY,≤ 0.2
17,ATLM,≤ 0.2
18,VDLM,≤ 0.2
19,ITYS,≤ 0.2
20,TKLT,≤ 0.2
